According to PMC12136788:
The other results are listed elsewhere or left out.

T1: UNK ZnF1-3 (human, UniProt Q9C0B0 31-174)
T1 sequence: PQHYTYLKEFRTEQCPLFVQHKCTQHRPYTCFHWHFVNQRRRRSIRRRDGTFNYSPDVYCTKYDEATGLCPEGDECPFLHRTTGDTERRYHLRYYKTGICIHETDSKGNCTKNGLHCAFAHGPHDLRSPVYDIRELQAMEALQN

B1: 44271160_44272037_1950_CDS_ENSG00000124608_ENST00000244571|human|control|control (ssRNA)
RNA: GGGAGUUCUACAGUCCGACGAUCCUGGGUGGUCACAUCCAAGCGCAGCUGCUCAGGAUUGAGAUGGGAGCCCUGCUGCUCUGUGCCAGGGCCCAGGGUCUGCCUCAGUGCCCAGUUCAGCAGGUGGGUGGCCGUAUGCUUCGCCAACAGAGGAUUGAGCAUCA
B2: chr22:41363808:41363809:+_ENSG00000100387_ENST00000216225|hu_hu|FALSE|FALSE (ssRNA)
RNA: GGGAGUUCUACAGUCCGACGAUCGUCCAAUGGACACACCUGUCGUGUUUUGAGCCAGCGAGAGAUGCAGUGGAAGUGAAAAGCAUGGUUACAGACUCCCCAUGCGACAGUACACUCUUCUGAAGUAGCGGACGCCUGGUUAGCCAACAGAGGAUUGAGCAUCA
B3: chr3:119450855:119450856:-_ENSMUSG00000028134_ENSMUST00000029780|mus_hu|mus_mus_mus_hu_False|58_58 (ssRNA)
RNA: GGGAGUUCUACAGUCCGACGAUCUGUGGUGCCACUAAGAGGAGUAUUUGCUGUCUGGACAGCUGUCACAGCUUGAAGAACUACUUGAGCACGUUGGUUUAAUGUAUUAUCUGUCUUUAGUUCUUUGUGAUUCGAGUACUGGAUCAACAGAGGAUUGAGCAUCA
B4: chr4:13698614:13698615:+_ENSMUSG00000006586_ENSMUST00000098257|mus_mus|FALSE|FALSE (ssRNA)
RNA: GGGAGUUCUACAGUCCGACGAUCACUCAGUGCUCUCCAAGUGUUUCUUUUGACAGAUAUCAUUCUCCAGCAAGCGCUGUGCUAAUCUCCUCUGCUGCUCGGACUGGGACCCAGAUAAGUUCACCAGCCCACAGAUCAAUCUUUCAACAGAGGAUUGAGCAUCA
B5: chr19:60835742:60835743:+_ENSMUSG00000072437_ENSMUST00000088237|mus_hu|motif|central (ssRNA)
RNA: GGGAGUUCUACAGUCCGACGAUCUCCAAAAAGGACUUUGUAGGAAAAUUAAAAUACAAAGAAAAAUAAAAGCCACGGGAAAUUUUAAGUCUGUACAGAAAAGAACAGGUUAAGACAAUCUGUACCUCUACAGUUGGAGAAGCCCAACAGAGGAUUGAGCAUCA
B6: chr2:170668292:170668293:+_ENSG00000138385_ENST00000260956|hu_hu|motif|central (ssRNA)
RNA: GGGAGUUCUACAGUCCGACGAUCGUGGACCUAAUUCGGUUUUCCUUUUAAAAGCCCCGCAAACAAAAGUCGUUUAAAACCGGUUUAAAAUGAAUAAAAAAUUGGUUUACUAAACUACUGGUCUCCAGCACCAUUUUCUGUUUUCAACAGAGGAUUGAGCAUCA
B7: chr5:28717518:28717519:+_ENSMUSG00000048271_ENSMUST00000114884|mus_hu|motif|central (ssRNA)
RNA: GGGAGUUCUACAGUCCGACGAUCUGCUGAGGGCGUGGCAGAGCAGCGGCUGCUGCUCAUUUCUAUCACGUGUGACGGCGCGGUGGGUAAUUCACGCAAAUUGCUGUUCCUUGGCGCAGUGGGCUGCAUUUGCUGCAUGGGCCGCAACAGAGGAUUGAGCAUCA
B8: chr14:89307221:89307222:+_ENSG00000165533_ENST00000346301|hu_hu|motif|central (ssRNA)
RNA: GGGAGUUCUACAGUCCGACGAUCUCCUGUCUGAUUAGUUCCAGGGAGUUUCAAAGACGUUCCAGGGCGUGGAACUUGAGCGGUAGCAUUUUCAUCCAGCAUCAUUUCUGCAAUUCCUUCCUGAUCUACAUCAAUUUCAUCUAUCAACAGAGGAUUGAGCAUCA
B9: 108382292_108397401_1306_3pUTR_ENSG00000106692_ENST00000223528|human|control|control (ssRNA)
RNA: GGGAGUUCUACAGUCCGACGAUCUUCACAGGGUACAUGGACCUUCAUGUCUACAAACUCAGUCCAGCACAGUGUAAACUUCGGAAACAGGUAUUUGAAUUUUUUUCCUGUUUUGGCCUGAGUGCCUCCAUUCCACAUGUGAUCCAACAGAGGAUUGAGCAUCA
B10: chr8:29927545:29927546:-_ENSG00000133872_ENST00000521265|hu_hu|FALSE|FALSE (ssRNA)
RNA: GGGAGUUCUACAGUCCGACGAUCAGGACUCAUAGCCUUCACAGCUCACCACAGUUUUUCCAAAUUUGUAUGCAAUAUCUAAGUCCGUCUUACAUUCCCACUGUACAUCAUACCCAUCCCAGCCUUUGUUCUGACACUGUAUGACAACAGAGGAUUGAGCAUCA
B11: chr14:94545736:94545737:-_ENSG00000089737_ENST00000330836|hu_hu|motif|central (ssRNA)
RNA: GGGAGUUCUACAGUCCGACGAUCCUCCAGCUCAGGAUCUUUCACUUCAAAUUCUUUCUGGGUACUGGUUCCUUCAGUUGCGGCAUUUUUACUUUUCUUCAACUUGAUCUUUUUCUUUGGUGAGCUAGACUUUCCCUCCUCCUCCAACAGAGGAUUGAGCAUCA
B12: chr4:25749455:25749456:-_ENSG00000091490_ENST00000264868|hu_hu|hu_hu_hu_mus_False|48_48 (ssRNA)
RNA: GGGAGUUCUACAGUCCGACGAUCGCACUAUGACCUCUAGAAAAAUCCACAGGGGGAAAAAAUGUAAACCAAUGUACAAUGUUAUCGCCCUCCCUGCGUGUGGAGUGUUUGUCUCAAGGCUCCUUCUAGCUGCUGGAUUUGGGACAACAGAGGAUUGAGCAUCA
B13: chr6:38489255:38489256:+_ENSMUSG00000019689_ENSMUST00000019833|mus_mus|FALSE|FALSE (ssRNA)
RNA: GGGAGUUCUACAGUCCGACGAUCCACUGAACGCUCACCCUUGCCAUGAAAUUCCUGAUGAAGGGCUACAUGUUGCCGGAUGCUACUCAAAAGGCAGAGAUAGGUGGCAGCUUGGAAGUGAAGUUCGUGUUGGGCUCUACACAACAACAGAGGAUUGAGCAUCA
B14: chr14:63761926:63761927:+_ENSMUSG00000021939_ENSMUST00000006235|mus_mus|motif|central (ssRNA)
RNA: GGGAGUUCUACAGUCCGACGAUCCUGCCAAUGUCAAGCAGAGGGAGAAUUGGUUUAUUGGCACAGACAUUCCUUGUUAAACGGCAGGGUUAAGUGGUAACUACAACAAAAAGCAAGUUUUUUUUUCCAGACUAGUUUCAUUGUCAACAGAGGAUUGAGCAUCA
B15: chr6:31368937:31368938:+_ENSMUSG00000025609_ENSMUST00000026699|mus_mus|FALSE|FALSE (ssRNA)
RNA: GGGAGUUCUACAGUCCGACGAUCGGGAGGAUAGUUGCUCUCUGAAGACCAUCUGGAAGACUGAUCAUUUGGUUUAUCCACUAAAAUGUUCUCGGGAAGGUAGGUGGAGGAGAAGGAGCUCCACUUAUGCAGCGCGUAGGGCAGCAACAGAGGAUUGAGCAUCA
B16: 20693388_20693508_2158_3pUTR_ENSMUSG00000043004_ENSMUST00000160013|mouse|control|control (ssRNA)
RNA: GGGAGUUCUACAGUCCGACGAUCCACCAACUUUUAAACCAUGAGGAAGAGAAUGGUAAGAGGAGAAAAGAAAUUUUACUUGGAUUUAGUGGUCUUUUAGGAUCUGAAAACAAAAAGAAUCGUAAGAGGCUCUCUUUGACUGGGCAACAGAGGAUUGAGCAUCA
B17: chr7:125262511:125262512:-_ENSMUSG00000030654_ENSMUST00000032888|mus_mus|FALSE|FALSE (ssRNA)
RNA: GGGAGUUCUACAGUCCGACGAUCAAAGAAGAAAUGAUUAAAACUGCCAAAGUAGUUAACUCGUAGAACAUGUAUUAGUCACACACACACAAAUUCCAGGUAGGAAGGCAGGCUUAUUUACAAGAAAACAUGUAAAAUCAAAGUCAACAGAGGAUUGAGCAUCA
B18: 84846767_84848187_400_CDS_ENSMUSG00000024644_ENSMUST00000025546|mouse|control|control (ssRNA)
RNA: GGGAGUUCUACAGUCCGACGAUCAUCGUCCGUGGAGCCUCUCCCAUACAGCUUGCCUUCCCGCUCCACCAAGGUGAAGGGCUCGCUGUCCCACCCGUCCUCCAGGGCCGCAGGCUGCACGUCCAGGUGCCCGUAAAUGCACACCAACAGAGGAUUGAGCAUCA
B19: 88149557_88149677_325_CDS_ENSMUSG00000015053_ENSMUST00000015197|mouse|control|control (ssRNA)
RNA: GGGAGUUCUACAGUCCGACGAUCAGGCAGCAGCUGUGCUGGCUCCAUGUAGUUAUGCGCCAGGCCCGGAUGGUGCGAGUCGGGGUGCUGCGCAUUCAAUACGGCGGGGUGCGCCAUCCAGCGAGGCUGCUCAGGCGCCACCUCCAACAGAGGAUUGAGCAUCA
B20: chr16:94651144:94651145:+_ENSMUSG00000040785_ENSMUST00000117648|mus_hu|FALSE|FALSE (ssRNA)
RNA: GGGAGUUCUACAGUCCGACGAUCAUUUUCUUGAAUCAAGUGGCGAAUAACAUAGUCCACUGCUUCAUUUAGAAAAUUUCUGCUAGAAAAACAGGUUGUAUAGUCUUCUGUGCUCAAAACUUUCCAAGAAAGCAAUUCUUUGAGCAACAGAGGAUUGAGCAUCA
B21: chr5:136386016:136386017:-_ENSMUSG00000051391_ENSMUST00000055808|mus_mus|FALSE|FALSE (ssRNA)
RNA: GGGAGUUCUACAGUCCGACGAUCGGGGGUAUUUAACGGUUUCUGUUUUUGUGAUGGGCUGACCUUAAGGGUAAAGAAGAACUAAAAAAAAAAGUAUCCCCCGCAGCCCCCUCCCAAACACCCAUCAACCAAAACGGAACAGGGCAACAGAGGAUUGAGCAUCA
B22: chr14:35505469:35505470:+_ENSMUSG00000041408_ENSMUST00000048263|mus_hu|FALSE|FALSE (ssRNA)
RNA: GGGAGUUCUACAGUCCGACGAUCCUGUAUGGUAACAUUACAAACUGACAAGCAAGAUGGAUGUAAAACAGUGUAAUCUCUAGUCCGUCCAACUGUCCCUCUAAAACUGGUCCCACAACUUACACCCCCUUUCUUUGCCUGAUUCAACAGAGGAUUGAGCAUCA

Target: T1, UNK ZnF1-3
Assay: nsRBNS (natural sequence RNA bind-n-seq); RBNS binding buffer (assumed for nsRBNS): 25 mM Tris pH 7.5, 150 mM KCl, 3 mM MgCl2, 0.01% Triton X-100, 500 ug/ml BSA, 20 U/ml SUPERase-In, 4 C; UNK is unkempt and MSI1 is Musashi-1; names of the RNAs are library labels; protein concentration not given here; high values mean tight binding

Binder | binding signal [enrichment R]
B1 | 1.39
B2 | 0.903
B3 | 0.823
B4 | 0.734
B5 | 2.47
B6 | 1.89
B7 | 0.545
B8 | 0.853
B9 | 0.589
B10 | 0.898
B11 | 0.426
B12 | 1.07
B13 | 1.12
B14 | 1.41
B15 | 2.07
B16 | 1.77
B17 | 1.09
B18 | 0.765
B19 | 0.544
B20 | 0.34
B21 | 1.36
B22 | 1.08
